Reference: the supplement of paper PMC10126150
Values marked as one replicate rest on one cluster of the flow cell; about a third of the high ones do not repeat.
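Also: ATP exposure 15 min at 22 °C before imaging.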

What follows are sequences tested on ATP (assay: switch fluorescence ratio, 500 uM ATP over buffer (Cy3 cluster intensity, sum of 5 cycles each) (fold (ratio)); higher = stronger signal-on switching upon ATP binding; sequences stand for … in TCGTCGGCAGCGTCAGATGTGTATAAGAGACAGTTTTTTTTTTTTTTTTTTTTTTTTT…TC). Details: aptamer strand: ATP DNA aptamer (quencher-CACCTGGGGGAGTATTGCGGAGGAAGG + anchor), 100 nM annealed; ATP concentration: 500 uM; one replicate.
Summary of the method: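 After annealing to 100 nM quencher-labelled ATP aptamer, Cy3-labelled switching-strand clusters on a modified Illumina MiSeq flow-cell were imaged in selection buffer. A second image followed after 15 min with 500 uM ATP at 22 °C, and five such buffer/ATP cycles were done, each separated by NaOH stripping and re-annealing. The fluorescence ratio, averaged per switch-domain sequence, is summed target-cycle over summed buffer-cycle Cy3 intensity per cluster, with clusters outside 100-1000 RFU excluded.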
GGTGTGGTAG was tested, and the switch fluorescence ratio was 0.995.
AAGGTATATG was tested, and the switch fluorescence ratio was 1.01.
AAAAATCTAA was tested, and the switch fluorescence ratio was 0.986.
In the case of AGATCCTACG, the switch fluorescence ratio is reported as 1.09.
ATATGCGGTC was tested, and the switch fluorescence ratio was 1.03.
GGGTTCATGA showed a switch fluorescence ratio of 0.987.
TTGCATCACG gave a switch fluorescence ratio of 1.06.
Sequence TCTTCAGCAC has a switch fluorescence ratio of 2.26.
For AGAATGTCTG, the switch fluorescence ratio was 1.01.
Sequence TGGTTCATGC has a switch fluorescence ratio of 1.01.
Work on ATTGAAACGT yielded a switch fluorescence ratio of 1.08.
In the case of TTGAAAGCAA, the switch fluorescence ratio is reported as 1.
For TCACTGCACT, the switch fluorescence ratio was 1.58.
CATGCGAAGA was tested, and the switch fluorescence ratio was 0.998.
In the case of TGATGTGGTT, the switch fluorescence ratio is reported as 0.964.
CGGAGGCTCC showed a switch fluorescence ratio of 4.52.
With GGTAGCCACC the switch fluorescence ratio was 1.05.
Work on AATCACTAGT yielded a switch fluorescence ratio of 1.03.
Work on AGCAAAGTAG yielded a switch fluorescence ratio of 1.02.
For GGATGTTGGA, the switch fluorescence ratio was 0.953.
In the case of AATTTACATT, the switch fluorescence ratio is reported as 1.07.
TTGGATTGGT gave a switch fluorescence ratio of 0.994.
In the case of ACTTCCGCAA, the switch fluorescence ratio is reported as 1.22.
GCAGCATGAA showed a switch fluorescence ratio of 1.3.
In the case of GGTAGTTGTA, the switch fluorescence ratio is reported as 0.983.
AGGACCTTAC gave a switch fluorescence ratio of 2.45.
AAAGCGTACT showed a switch fluorescence ratio of 1.09.
For CCAAAAATTA, the switch fluorescence ratio was 0.985.
ACTAGCAGTG gave a switch fluorescence ratio of 1.
AACACTTATG showed a switch fluorescence ratio of 1.03.
Work on ACCGTTACTG yielded a switch fluorescence ratio of 1.22.
ACACCGGGGC gave a switch fluorescence ratio of 1.08.
With TCTTCTATAG the switch fluorescence ratio was 1.01.
Work on TTTGGCAGAG yielded a switch fluorescence ratio of 1.04.
CTTAGGTTAA showed a switch fluorescence ratio of 0.96.
Sequence TTTTGTTCGT has a switch fluorescence ratio of 0.98.
TTGCAGAGTA gave a switch fluorescence ratio of 1.08.
With TGCGGAGCGC the switch fluorescence ratio was 1.08.
TCCATGCGGA showed a switch fluorescence ratio of 0.996.
AGGTACCAGG was tested, and the switch fluorescence ratio was 1.23.
TTTGAGGTG showed a switch fluorescence ratio of 1.06.
Sequence GTGAGAATAG has a switch fluorescence ratio of 0.963.
AGTTAAGTCT gave a switch fluorescence ratio of 0.998.
In the case of GTCGAGATAA, the switch fluorescence ratio is reported as 0.991.
ATGGGAGTCT gave a switch fluorescence ratio of 1.
Sequence ATAAGAGTTG has a switch fluorescence ratio of 0.939.
TTACAGCTTT was tested, and the switch fluorescence ratio was 0.997.
In the case of GCTGATAGGA, the switch fluorescence ratio is reported as 1.
AGCTCATTTA gave a switch fluorescence ratio of 1.02.
For AGGTGCGTTT, the switch fluorescence ratio was 0.991.
TGCATCAGAT showed a switch fluorescence ratio of 1.01.
Work on AGGAATAATA yielded a switch fluorescence ratio of 1.01.
CATATGTTAC was tested, and the switch fluorescence ratio was 1.09.
Work on AGGGTTTCGA yielded a switch fluorescence ratio of 1.03.
TTTGGTTGCA was tested, and the switch fluorescence ratio was 1.04.
In the case of CACTGCCATT, the switch fluorescence ratio is reported as 1.19.
TCCGAAATTG showed a switch fluorescence ratio of 1.41.
With AAGGCCTTGG the switch fluorescence ratio was 1.11.
ATATCCATGC was tested, and the switch fluorescence ratio was 1.05.
In the case of GGATATATGA, the switch fluorescence ratio is reported as 1.02.
AGTTGGAGAA gave a switch fluorescence ratio of 0.972.
For TCTCAATTTT, the switch fluorescence ratio was 0.996.
Sequence TTCTGGTCGG has a switch fluorescence ratio of 1.01.
TTTTGTGCGC gave a switch fluorescence ratio of 0.972.
TTACATCAGA showed a switch fluorescence ratio of 1.02.
Work on GCGTCAGCAG yielded a switch fluorescence ratio of 1.04.
TGTGTGTGCA showed a switch fluorescence ratio of 1.
Sequence TACCAACCGC has a switch fluorescence ratio of 1.27.
Work on GCAAATCGAC yielded a switch fluorescence ratio of 1.79.
TCTTAGCTAA gave a switch fluorescence ratio of 1.04.
In the case of ACACTTGGCG, the switch fluorescence ratio is reported as 1.05.
With GGCGATGGCT the switch fluorescence ratio was 1.01.
Work on TTTTTCACAT yielded a switch fluorescence ratio of 0.974.
For AGGTTTAACG, the switch fluorescence ratio was 0.966.
In the case of CCGGTTGGTT, the switch fluorescence ratio is reported as 0.984.
In the case of GGTTCATGGA, the switch fluorescence ratio is reported as 1.02.
With CTTGCCAGTG the switch fluorescence ratio was 1.06.
For TCCTAGGA, the switch fluorescence ratio was 1.06.
Work on CCTGTTCATA yielded a switch fluorescence ratio of 0.996.
In the case of CCGAAATTCG, the switch fluorescence ratio is reported as 1.49.
TATCCTAATG showed a switch fluorescence ratio of 1.01.
Work on CCCCCCAACC yielded a switch fluorescence ratio of 1.86.
For CAAGTATTCT, the switch fluorescence ratio was 0.965.
In the case of TCTCGTAAAC, the switch fluorescence ratio is reported as 2.1.
TCAGAGCGG showed a switch fluorescence ratio of 1.04.
In the case of AGTTAATAG, the switch fluorescence ratio is reported as 0.991.
AGAGAGGTCG was tested, and the switch fluorescence ratio was 1.02.
AATTGAAGG gave a switch fluorescence ratio of 0.975.
Work on GTATATGATG yielded a switch fluorescence ratio of 1.03.
For ACATATGGTG, the switch fluorescence ratio was 1.07.
GCGTCGGGGT gave a switch fluorescence ratio of 1.01.
Work on AGGTTATGAG yielded a switch fluorescence ratio of 1.01.
GCAACATTGT gave a switch fluorescence ratio of 0.984.
CGTTGTATCG showed a switch fluorescence ratio of 0.99.
CGTACTAAGC was tested, and the switch fluorescence ratio was 1.09.
In the case of AAATACGGAG, the switch fluorescence ratio is reported as 0.992.
For AATAGGCTC, the switch fluorescence ratio was 1.05.
In the case of ACACGTAGG, the switch fluorescence ratio is reported as 1.05.
GGTTTGGAAC was tested, and the switch fluorescence ratio was 1.07.
For TCTCTTTACA, the switch fluorescence ratio was 0.97.
Sequence CGAAGAAGTG has a switch fluorescence ratio of 0.971.
TACGCCTAGC showed a switch fluorescence ratio of 1.1.
For AGTTTGTCAC, the switch fluorescence ratio was 0.975.
GTTAGTCATG was tested, and the switch fluorescence ratio was 0.965.
TATGAGCGCC was tested, and the switch fluorescence ratio was 1.02.
GAGTGGACGA showed a switch fluorescence ratio of 0.982.
CGTAGCGGAA was tested, and the switch fluorescence ratio was 1.37.
Sequence ACAGGGTATC has a switch fluorescence ratio of 0.958.
In the case of CGGAGCGGAC, the switch fluorescence ratio is reported as 1.01.
CTAGAGAACT showed a switch fluorescence ratio of 1.03.
With CGTCCTAAC the switch fluorescence ratio was 1.19.
Work on TCTACCTAAT yielded a switch fluorescence ratio of 1.05.
GGAACAAGGG showed a switch fluorescence ratio of 0.997.
Work on CTCGCGGCTG yielded a switch fluorescence ratio of 1.02.
GCGGTATTAA gave a switch fluorescence ratio of 0.948.
With GAGGGAAAGA the switch fluorescence ratio was 0.957.
TACATCCAAT was tested, and the switch fluorescence ratio was 1.02.
Sequence GGATGAGACG has a switch fluorescence ratio of 1.07.
With CCACGGATCG the switch fluorescence ratio was 1.05.
With ACTCTAGGGG the switch fluorescence ratio was 1.13.
Work on TGATTTGCCC yielded a switch fluorescence ratio of 1.03.
With ATCGATTTAT the switch fluorescence ratio was 0.979.
With ATTCCTAATT the switch fluorescence ratio was 1.
TTCAACATTC gave a switch fluorescence ratio of 1.16.
For AAGAACGGCA, the switch fluorescence ratio was 1.05.
AAAAGTAAGC gave a switch fluorescence ratio of 1.14.
GGTTAGGCGA was tested, and the switch fluorescence ratio was 1.01.
GGTTATGTA showed a switch fluorescence ratio of 0.993.
AAAGACTGTG was tested, and the switch fluorescence ratio was 1.1.
GCTGGCGGTG gave a switch fluorescence ratio of 0.966.
Work on AGCGATACTA yielded a switch fluorescence ratio of 4.15.
With AATAGGTATT the switch fluorescence ratio was 1.04.
AAATTTCAGA showed a switch fluorescence ratio of 1.01.
CCGCGCTAGG gave a switch fluorescence ratio of 1.57.
CATATCAAGT gave a switch fluorescence ratio of 0.958.
Work on TCGTCTCGC yielded a switch fluorescence ratio of 0.992.
CTCCATATTT gave a switch fluorescence ratio of 1.09.
Sequence ATACCCGCAT has a switch fluorescence ratio of 2.
Work on TAATTTATTG yielded a switch fluorescence ratio of 1.02.
For GCAGATTCAG, the switch fluorescence ratio was 0.993.
ATGAAGATGA gave a switch fluorescence ratio of 1.01.
Work on AAGGCGGTTT yielded a switch fluorescence ratio of 1.01.
AAGATTCTAG showed a switch fluorescence ratio of 0.961.
GCATCTGGGT showed a switch fluorescence ratio of 1.03.
Work on GGCTATATAT yielded a switch fluorescence ratio of 1.02.
GTAGCGGGCG showed a switch fluorescence ratio of 0.963.
GGTTCCGTTA was tested, and the switch fluorescence ratio was 0.977.
AGTCGTCTAC gave a switch fluorescence ratio of 0.985.
CGATTAATTG was tested, and the switch fluorescence ratio was 0.977.
Sequence GGGGAGCGCA has a switch fluorescence ratio of 1.01.
GCTGACAAAA was tested, and the switch fluorescence ratio was 1.01.
In the case of GGTTGCTGCT, the switch fluorescence ratio is reported as 0.962.
CGGCTGCGGT showed a switch fluorescence ratio of 1.07.
For TCGGACTAAC, the switch fluorescence ratio was 1.13.
TGAAAGGAC showed a switch fluorescence ratio of 1.03.
For TTCTGCATTT, the switch fluorescence ratio was 1.17.
For TCACATTAGG, the switch fluorescence ratio was 1.05.
For AACCAACACG, the switch fluorescence ratio was 1.15.
With ATGGCACCAA the switch fluorescence ratio was 1.07.
Work on CACTACGTCA yielded a switch fluorescence ratio of 1.19.
Work on AGGTGGAGCT yielded a switch fluorescence ratio of 0.966.
TTCGATAAAG showed a switch fluorescence ratio of 1.
Work on CAGCCGAGAA yielded a switch fluorescence ratio of 1.07.
For GCAGAAATCT, the switch fluorescence ratio was 1.07.
Sequence CTGTGACATC has a switch fluorescence ratio of 1.03.
In the case of TATCGTAACC, the switch fluorescence ratio is reported as 0.972.
In the case of CGGCAGTACG, the switch fluorescence ratio is reported as 1.8.
In the case of TTTCTCCGGA, the switch fluorescence ratio is reported as 1.05.
TTGTCTAAAT was tested, and the switch fluorescence ratio was 1.03.
For CCGTAGGTC, the switch fluorescence ratio was 1.12.
Sequence ACCTTGCGAA has a switch fluorescence ratio of 1.26.
TACATCAATA gave a switch fluorescence ratio of 1.04.
GCTGCGAGGC was tested, and the switch fluorescence ratio was 1.16.
Work on GCTTAAAATA yielded a switch fluorescence ratio of 0.974.
AACCGTGGA gave a switch fluorescence ratio of 1.03.
Sequence GTTTAGTGCG has a switch fluorescence ratio of 0.959.
For CACTTCTTT, the switch fluorescence ratio was 0.978.
Sequence AGCAAGGCCG has a switch fluorescence ratio of 0.944.
Sequence GGCGTACAAG has a switch fluorescence ratio of 0.968.
For GAGGAAACGG, the switch fluorescence ratio was 1.02.
TTTAGAAGAA was tested, and the switch fluorescence ratio was 1.02.
With TGCGGGGCGC the switch fluorescence ratio was 1.06.
With CAGATCTGGG the switch fluorescence ratio was 1.01.
TGCGCGGAG was tested, and the switch fluorescence ratio was 1.06.
With AACGGCATGA the switch fluorescence ratio was 1.04.
AACTTGGTTC gave a switch fluorescence ratio of 0.991.
GTAGTTTTT was tested, and the switch fluorescence ratio was 0.985.
Sequence CTAAAGGAGA has a switch fluorescence ratio of 1.02.
In the case of GTTGTAGAAA, the switch fluorescence ratio is reported as 1.03.
For CGTCGGACCT, the switch fluorescence ratio was 0.989.
For GATTCGGGCA, the switch fluorescence ratio was 0.975.
With CAGCAAGTAG the switch fluorescence ratio was 2.05.
CGAAGATTGT was tested, and the switch fluorescence ratio was 0.957.
TTAAACTCAT gave a switch fluorescence ratio of 0.987.
TGAGGCACAA gave a switch fluorescence ratio of 1.03.
Sequence TTGCTGGAAC has a switch fluorescence ratio of 0.985.
ATATCGAGTC gave a switch fluorescence ratio of 1.06.
Work on AAGGTCGACA yielded a switch fluorescence ratio of 1.02.
In the case of ACGCGGGGAT, the switch fluorescence ratio is reported as 1.04.
Sequence GGTGGATGTA has a switch fluorescence ratio of 0.899.
